# Assay results: PubChem BioAssay AID1466 (National Center for Advancing Translational Sciences (NCATS), 2008)
# Hit rate of the full screen: of about 200,000 compounds, about 10 (0.005%) were called active. The shares of active, inactive and inconclusive entries below differ from those in the screen. Calls follow the shape of the dose curve; as a rule, active = well fitted inhibition curve with a large enough effect; inconclusive = small, poorly fitted or top-dose-only effect, or effect the other way, or another doubt; inactive = no such curve, though single readings can be large or run the other way. Where the call is inconclusive, the potency comes from a doubtful curve fit.
# Biological target: Lysosomal alpha-glucosidase (Homo sapiens) (UniProt P10253)
# Experiment: qHTS Assay for Inhibitors of Human alpha-Glucosidase as a Potential Chaperone Treatment of Pompe Disease;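 as to activity change, negative = inhibition: plate controls were uninhibited enzyme wells for no effect and no-enzyme background for full effect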
# Settings: purified human GAA, 4-MU-alpha-glucoside fluorescence; activity change, negative = inhibition: at 76.9 µM (top of the series) unless noted
# How it was run: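 Human alpha-glucosidase, 4 nM, pre-mixed with test compounds before 400 uM 4-methylumbelliferyl substrate; 20 min room temperature at pH 5.0. Fluorescence read after pH 10 stop; AC50 values from Hill-equation fits.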
# Potency is read from the fitted curve at half-maximal effect; tags tell the direction and shape of the fitted curve.
Compound,Potency,"activity change, negative = inhibition"
CCOC(=O)c1cc(-c2ccc(OC(F)F)cc2)nc2nc(SC)[nH]c(=O)c12,"inconclusive: 28.2 µM [activator, single point]",–
CCc1[nH]nc(C(=O)N2CCCC(CCC(=O)N3CCN(c4ccccn4)CC3)C2)c1C (stereo not given),–,inconclusive: 15.2% [activator]
O=C(Nc1ccc(F)cc1F)NC1CC(=O)N(Cc2ccccc2)C1 (stereo not given),"inconclusive: 31.6 µM [inhibitor, single point]",–
CNC(=O)c1cc2c(=O)n3cc(C)ccc3nc2n(C(C)C)c1=N,"inconclusive: 8.91 µM [activator, partial curve]",–
O=C(NCCCn1ccnc1)c1nn2c(C(F)(F)F)cc(-c3ccc(Br)cc3)nc2c1Cl,"inconclusive: 28.2 µM [inhibitor, partial curve]",–
COCCNC(=O)c1c(N)n(-c2cccc(C)c2)c2nc3ccccc3nc12,–,inconclusive: 96% [activator]
Cn1c(CNC(=O)Nc2ccccc2)nnc1SCc1ccccc1,"inconclusive: 56.2 µM [inhibitor, single point]",–
COc1ccc(NC(=S)Nc2ccc3nsnc3c2)cc1,"inconclusive: 50.1 µM [inhibitor, single point]",–
COc1ccc(CNC(=O)COC(=O)c2cc(-c3cccs3)nc3ccccc23)cc1OC,–,inconclusive: 20.6% [activator]
Cc1ccc(CSc2nc3sc(C)c(C)c3c(=O)n2Cc2ccco2)cc1,"inconclusive: 11.2 µM [inhibitor, single point]",–
O=C(Nc1cccc(C(F)(F)F)c1)c1ccc(-n2cncn2)nc1,–,inconclusive: -19.6% [inhibitor]
CS(=O)(=O)N(Cc1ccccc1)c1ccc(C(=O)Nc2cccnc2)cc1,"inconclusive: 31.6 µM [inhibitor, single point]",–
O=C(Nc1ccc(C(F)(F)F)cc1)c1cc(S(=O)(=O)NCC2COc3ccccc3O2)ccc1F (stereo not given),–,inconclusive: -15.9% [inhibitor]
Cc1ccccc1C(=O)Nc1cc(S(=O)(=O)N2CCCCC2)ccc1N1CCN(C)CC1,"inconclusive: 39.8 µM [inhibitor, partial curve]",–
CC1CCN(c2oc(-c3cccc4ccccc34)nc2C#N)CC1,"inconclusive: 25.1 µM [activator, partial curve]",–
O=C(CSc1nnc(-c2cccc(S(=O)(=O)N3CCCC3)c2)n1-c1ccccc1)Nc1ccc(C(=O)O)cc1,"inconclusive: 35.5 µM [inhibitor, single point]",–
O=C(NC1CCCCC1)n1c(=O)oc2cc(S(=O)(=O)N3CCCCC3)ccc21,"inconclusive: 50.1 µM [inhibitor, single point]",–
O=C(Cn1cnc([N+](=O)[O-])n1)N/N=C/c1ccc(O)cc1O,–,inconclusive: -15.7% [inhibitor]
CCOc1ccc(-c2nc3scc(-c4cccs4)c3c(=O)[nH]2)cc1,"inconclusive: 35.5 µM [activator, partial curve]",–
Cc1ccc(/C(O)=C2/C(=O)C(=O)N(CCN3CCOCC3)C2c2cccs2)cc1 (stereo not given),"inconclusive: 8.91 µM [inhibitor, single point]",–
CCOc1ccc(NC(=O)CCC(=O)c2ccc(-c3ccccc3)cc2)cc1,"inconclusive: 44.7 µM [activator, single point]",–
COC(=O)C1=C(C(=O)c2ccc(C)cc2)C(c2ccccc2)n2nnnc2N1 (stereo not given),"inconclusive: 12.6 µM [activator, single point]",–

Compound,Potency,"activity change, negative = inhibition"
CCOc1ccc(OCc2cccc(C(=O)O)c2)cc1,–,inactive: -0.426%
CN1/C(=C\C(=O)c2ccco2)c2ccccc2CC1(C)C,–,inconclusive: -19.1% [inhibitor]
COC(=O)CNS(=O)(=O)c1ccc(Cc2ccc(S(=O)(=O)NCC(=O)OC)cc2)cc1,"inconclusive: 0.178 µM [inhibitor, full curve, poor fit]",–
O=C(COc1cccnc1[N+](=O)[O-])N1CCN(S(=O)(=O)c2ccc3ccccc3c2)CC1,"inconclusive: 44.7 µM [inhibitor, single point]",–
CCC1(CC)C(=O)N(C)C(=O)NC1=Nc1ccc(OC)cc1,–,inconclusive: -16% [inhibitor]
O=C(O)Cc1coc2ccc3ccccc3c12,–,inactive: 1.45%
COc1ccc(NC(=O)c2cccc(S(=O)(=O)N(C)c3ccccc3)c2)cn1,–,inconclusive: -15.6% [inhibitor]
COc1ccccc1-n1cnnc1SCC(=O)Nc1cc(C)on1,"inconclusive: 0.158 µM [inhibitor, full curve, poor fit]",–
N#Cc1cc(-c2ccccc2)nn1-c1ccccc1,–,inactive: -2.06%
O=C1c2sc3nc4n(c(=O)c3c2CCC1Br)CCCCC4 (stereo not given),–,inactive: 5.36%
CCN1C(=S)SC(=O)C1=C1C=C(C)N(Cc2ccco2)C(C)=C1,"inconclusive: 22.4 µM [inhibitor, partial curve, poor fit]",–
O=C(c1ccccc1F)N1CCN(S(=O)(=O)c2ccc3c(c2)OCCO3)CC1,–,inactive: -7.55% [at 15.4 µM]
CN(NC(=O)c1ccccc1)c1ncc(C(F)(F)F)cc1Cl,"inconclusive: 14.1 µM [inhibitor, single point]",–
CC(C)CC(C(=O)NC1CCCC1)N(Cc1ccc2c(c1)OCO2)C(=O)c1snc(C(N)=O)c1N (stereo not given),"inconclusive: 0.794 µM [inhibitor, full curve]",–
CCOc1cc(/C=C2/C(=O)ON=C2C)ccc1OCc1ccccc1,–,inconclusive: 4.52% [activator]
COc1ccc(OC)c(NC(=O)CC2SC(=Nc3ccc(F)cc3)N(CCC3=CCCCC3)C2=O)c1 (stereo not given),–,inconclusive: -16.7% [inhibitor]
CCOc1ccc(-n2c(=O)cc(N3CCN(c4ccc(F)cc4)CC3)[nH]c2=O)cc1,–,inconclusive: 15% [activator]
NC(=O)C1CCN(C(=O)c2ccc(C(F)(F)F)cc2)CC1,"inconclusive: 7.08 µM [inhibitor, single point]",–
CCN(CC)S(=O)(=O)c1ccc(N2CCOCC2)c(NC(=O)c2cc(-c3ccccn3)nc3ccccc23)c1,–,inconclusive: -16.6% [inhibitor]
COc1ccc(C2CC(=O)c3cnc(N4CCN(Cc5ccccc5)CC4)nc3C2)cc1 (stereo not given),"inconclusive: 7.94 µM [inhibitor, partial curve]",–
COc1ccccc1N1C(=O)CC(N(O)c2ccccc2)C1=O (stereo not given),–,inactive: 1.04%
Cc1oc(-c2ccc(Cl)cc2)nc1CSCC(=O)NCCCN1CCOCC1,"inconclusive: 44.7 µM [inhibitor, single point]",–

Compound,Potency,"activity change, negative = inhibition"
CC(=O)N1CCN(c2ccc(NC(=S)NC(=O)/C=C/c3ccccc3)cc2)CC1,"inconclusive: 11.2 µM [inhibitor, single point]",–
N#Cc1c2c(c(NCc3cccnc3)n3c1nc1ccccc13)CCC2,"inconclusive: 7.08 µM [activator, single point]",–
CCOC(=O)CNc1c(-c2ccccc2)nc2ccc(Cl)cn12,–,inactive: -2.25%
Cc1ccc(C(=O)N/N=C\c2ccc(-c3ccc([N+](=O)[O-])cc3)o2)cn1,–,inconclusive: -15.4% [inhibitor] [at 15.4 µM]
Cc1nc2ccccc2n1C(=O)c1cc(-c2ccc(Br)cc2)nc2ccccc12,"inconclusive: 44.7 µM [inhibitor, single point]",–
Cc1ccc(S(=O)(=O)c2c(N)n(CCC(C)C)c3nc4ccccc4nc23)cc1,"inconclusive: 44.7 µM [activator, single point]",–
CCOc1ccc(NC(=O)N2CCCC2C(=O)NCC2CCCO2)cc1 (stereo not given),–,inconclusive: 8.61% [activator]
COC1=C(Nc2ccc(C)cc2)C(=O)c2ccccc2C1=O,–,inactive: -3.04%
Cc1c(CNC(=O)c2nn3c(c2Cl)NC(c2ccccc2)CC3C(F)(F)F)cnn1C (stereo not given),"inconclusive: 0.178 µM [inhibitor, full curve, poor fit]",–
COc1ccc(/C=N/NC(=O)CSc2ccccc2)cc1OC,"inconclusive: 39.8 µM [inhibitor, partial curve]",–
O=C(Cc1ccc(S(=O)(=O)N2CCCCC2)s1)Nc1ccc(F)cc1F,"inconclusive: 39.8 µM [inhibitor, single point]",–
CCOC(=O)c1cc2ccc(OC(=O)c3ccco3)cc2oc1=O,"inconclusive: 35.5 µM [activator, partial curve]",–
O=C(O)CSc1nc2c(c(C(F)(F)F)n1)CCc1ccccc1-2,"inconclusive: 5.62 µM [inhibitor, single point]",–
O=C1c2[nH]nc(-c3ccccc3O)c2C(c2ccc(F)cc2)N1Cc1ccco1 (stereo not given),"inconclusive: 25.1 µM [inhibitor, single point]",–
O=C1CC(N2CCN(c3ccc(O)cc3)CC2)C(=O)N1c1ccc2c(c1)OCO2 (stereo not given),–,inactive: 12.2%
O=C(c1ccccc1)N1CCN(c2ccc(NCc3ccc4c(c3)OCO4)cc2)CC1,–,inactive: -3.61%
Cc1ccccc1-c1nc(CN2CCC(C(=O)NCCC3=CCCCC3)CC2)c(C)o1,"inconclusive: 39.8 µM [inhibitor, single point]",–
COc1ccc(C)cc1NC(=O)CN1CCN(c2ccccc2F)CC1,–,inconclusive: -15% [inhibitor]
O=C(Nc1ccccc1C(=O)NC(Cc1ccc(O)cc1)C(=O)O)c1ccccc1 (stereo not given),"inconclusive: 11.2 µM [inhibitor, full curve, poor fit]",–
O=C(Nc1ccc(F)cc1)Nc1ccc(N2CCCC2)c(S(=O)(=O)Nc2ccccc2Cl)c1,–,inconclusive: -16.4% [inhibitor]
Cc1c(C(=O)N2CCOCC2)cc(C(C)(C)C)n1-c1ccccc1,"inconclusive: 5.62 µM [inhibitor, partial curve]",–
